Reference: PubChem BioAssay AID504467 (National Center for Advancing Translational Sciences (NCATS), 2011)
Screen size: about 330,000 compounds; about 7,700 (2.3%) were called active. Not shown: some 26% with an inconclusive outcome. The call rests on the fitted dose curve; in most records, active means well fitted inhibition curve with a large enough effect; inconclusive means small, poorly fitted or top-dose-only effect, or effect the other way; inactive means flat fitted curve, though single readings scatter. Only a part is listed here, and it is no random draw.

Assay: qHTS screen for small molecules that inhibit ELG1-dependent DNA repair in human embryonic kidney (HEK293T) cells expressing luciferase-tagged ELG1; further: nearly all actives have a fitted effect of over 55% in size
Conditions: HEK293T ELG1-luciferase reporter, luminescence, 16 h, DNA damage induced by 5-fluorouridine; series mostly up to 46.1 µM; activity change, negative = inhibition: at the top concentration
How it was run: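 Overnight (16 hr) co-exposure of 2,000 cells/well to 5-fluorouridine and compound at 37 °C preceded detection. Luciferase was quantified via ONE-Glo luminescence; loss of signal denotes inhibition.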
On the % scale 0 is the no-effect control and ±100 the full control effect; potency means the concentration at half of the fitted maximal effect.

| SMILES | activity change, negative = inhibition | Potency |
| --- | --- | --- |
| OCC[C@H]1C[C@@H](O)[C@H](O)[C@@]2(CCCc3ccccc3O2)O1 | inactive: 0.722% | – |
| OCC[C@H]1C[C@@H](O)[C@H](O)[C@@]2(Cc3ccccc3CO2)O1 | inactive: 7.84% | – |
| CC(C)(C)SC(=O)CC1NS(=O)(=O)OC2CCCCC12 (configuration not stated) | inactive: -2.8% | – |
| C=C[C@]1(C)C=C2CCC3[C@](C)(CCC[C@@]3(C)C(=O)O)C2CC1 (some centres not stated) | inactive: 0.945% | – |
| Cn1c(=O)c(C(=O)COC(=O)c2cc(-c3ccco3)nc3ccccc23)c(N)n(CC2CC2)c1=O | – | active: 6.51 µM |
| C[C@@H]1CC[C@]2(O[C@@H](CCO)C[C@H](O)[C@H]2O)O1 | inactive: 9.4% | – |
| O=C(CSc1nc(-c2ccccc2)cs1)NC(=O)NCc1ccco1 | – | active: 18.4 µM |
| C[C@H](CCC(=O)NCC(=O)O)[C@H]1CC[C@H]2C3[C@H](O)C[C@@H]4C[C@H](O)CC[C@]4(C)[C@H]3C[C@H](O)[C@]12C (some centres not stated) | inactive: 15.2% | – |
| OCC[C@@H]1C[C@H](O)[C@@H](O)[C@@]2(CCc3ccccc3O2)O1 | inactive: 10.3% | – |
| CCOC(=O)/C(C#N)=C1/C(=O)N(Cc2ccccc2)c2ccccc21 | inactive: -16.2% | – |
| CCOC(=O)[C@@H]1[C@H]2COc3cc(OC)ccc3[C@H]2N2C(=O)N(c3cccc(F)c3)C(=O)[C@@]12C | inactive: -17.8% | – |
| COc1ccc(N=C/C=C2/C=C(c3ccccc3)OC(C)(C)O2)cc1 | inactive: -17.7% | – |
| COc1cccc(-n2nc(-c3ccnn3-c3ccc(C)cc3)c(=O)n(C)c2=O)c1 | – | active: 20.6 µM |
| CCOC(=O)[C@@H]1[C@H]2COc3ccccc3[C@@H]2N2C(=O)N(c3ccc(C)cc3)C(=O)[C@@]12C | inactive: 16.3% | – |
| CC(C)[C@H]1C(=O)Nc2ccccc2N1C(=O)N[C@@H](Cc1ccccc1)C(=O)N[C@@H](C(=O)O)c1ccccc1 | inactive: 24.5% | – |
| NC(=O)C1=C[C@H](c2coc3ccccc3c2=O)C[C@H](OCCCCO)O1 | inactive: 0% | – |
| CCC(=O)O[C@]1(C(=O)CCl)[C@@H](C)C[C@H]2[C@@H]3CCC4=CC(=O)C=C[C@]4(C)[C@@]3(F)[C@@H](O)C[C@@]21C | inactive: 4.49% | – |
| OCC[C@H]1C[C@H](O)[C@@H](O)[C@]2(CCCc3ccccc3O2)O1 | inactive: 0.344% | – |
| O=C(C[C@@H]1C/C=C\C[C@@H](Cc2ccc(F)cc2)C(=O)OC[C@@H]2CCCN2C1=O)NCCO | inactive: 15.2% | – |

| SMILES | activity change, negative = inhibition | Potency |
| --- | --- | --- |
| CC(=O)C[C@H](O)CC(=O)[C@H]1OC(=O)[C@@H](C)C/C=C\Cc2ccccc21 | inactive: 7.23% | – |
| COCCN(Cc1ccccc1)C(=O)c1cccc(S(=O)(=O)N2CCN(c3ccccc3)CC2)c1 | – | active: 14.6 µM |
| CC(=O)C[C@@H](O)CC(=O)[C@H]1OC(=O)[C@H](C)C/C=C\Cc2ccccc21 | inactive: -1.85% | – |
| CC[C@]12CCCN3CCc4c(n(c5ccccc45)[C@](O)(C(=O)OC)C1)[C@@H]32 | inactive: -3.14% | – |
| C/C(=C\C(=O)N1CCc2ccccc21)C(=O)O | inactive: 2.19% | – |
| O=C(Nc1ccccn1)c1ccc(CN(c2ccccc2)S(=O)(=O)c2ccccc2)cc1 | – | active: 18.3 µM |
| COC(=O)[C@H](CC(C)C)NS(=O)(=O)N(Cc1ccccc1)[C@@H](CC(C)C)C(=O)OC | inactive: -13.3% | – |
| O=C(O)/C=C/C(=O)Nc1ccc(OCc2ccccc2)cc1 | inactive: 13.5% | – |
| CCN(CC)CCOC(=O)c1ccc(NC(=O)CCCN2C(=O)/C(=C/c3cccs3)SC2=S)cc1 | inactive: 12% | – |
| OCC[C@@H]1C[C@@H](O)[C@H](O)[C@@]2(CCc3ccccc3CO2)O1 | inactive: 22.5% | – |
| C[C@@H]1C[C@H]2[C@@H]3CCC4=CC(=O)C=C[C@]4(C)[C@@]3(F)[C@@H](O)C[C@]2(C)[C@@]1(O)C(=O)CO | inactive: 15.6% | – |
| CCOc1ccc(-c2nc(CSCC(=O)NCc3ccco3)c(C)o2)cc1 | – | active: 7.31 µM |
| O=C(C[C@@H]1C/C=C\CCC(=O)OC[C@@H]2CCCN2C1=O)N[C@H](CO)Cc1ccccc1 | inactive: 17.7% | – |
| CC(/C=C/C1(O)C(C)CC(O)CC1(C)C)OC1OC(CO)C(O)C(O)C1O (configuration not stated) | inactive: -0.413% | – |
| C[C@@]12C(=O)N(c3ccc(Br)cc3)C(=O)N1[C@@H]1c3ccccc3OC[C@@H]1[C@H]2c1ccccc1 | inactive: -2.42% | – |
| O=C(C1=C[C@@H](C2CCCCC2)C[C@@H](OCCCCO)O1)N1CCN(Cc2ccc3c(c2)OCO3)CC1 | inactive: -15.4% | – |
| Cc1cc(=O)oc2cc(OS(C)(=O)=O)ccc12 | inactive: 2.77% | – |
| CCn1c(C)cc(/C=C2\NC(=O)N(CC(=O)Nc3cccc(C)c3)C2=O)c1C | inactive: -1.62% | – |
